Measured values as given in PubChem BioAssay AID624417 (National Center for Advancing Translational Sciences (NCATS), 2012).
Among all 410,000 compounds or so, about 6,400 (1.6%) were called active. The inconclusive results got no clear call from the source; some entries with a clear call stand among them for comparison. Calls come from the whole dose curve; as a rule, active = well fitted inhibition curve with a large enough effect; inconclusive = small, poorly fitted or top-dose-only effect; inactive = no such curve, though single readings can be large or run the other way. No potency is given beside an inconclusive call; the fits are too rough.

Biological target: Glucagon-like peptide 1 receptor (Homo sapiens) (UniProt P43220)
UniProt P43220, sequence (P43220 whole entry, looked up): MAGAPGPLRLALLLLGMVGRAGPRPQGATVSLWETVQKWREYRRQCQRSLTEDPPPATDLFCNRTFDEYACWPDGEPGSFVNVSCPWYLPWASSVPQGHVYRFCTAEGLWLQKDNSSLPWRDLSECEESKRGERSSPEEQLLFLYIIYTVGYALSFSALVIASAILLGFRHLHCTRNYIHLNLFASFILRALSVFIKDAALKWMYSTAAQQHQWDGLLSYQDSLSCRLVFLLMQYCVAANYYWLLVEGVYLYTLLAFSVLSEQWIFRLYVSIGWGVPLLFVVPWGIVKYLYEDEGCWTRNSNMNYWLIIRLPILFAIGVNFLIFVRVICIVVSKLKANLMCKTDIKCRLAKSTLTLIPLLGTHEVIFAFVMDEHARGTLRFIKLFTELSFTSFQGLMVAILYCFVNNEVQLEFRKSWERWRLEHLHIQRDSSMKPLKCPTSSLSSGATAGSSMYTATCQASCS
Assay: qHTS of GLP-1 Receptor Inverse Agonists (Inhibition Mode); note: nearly all actives have a fitted effect of over 55% in size
Details: HEK293 GLP-1R CRE-luciferase, luminescence, 24 h, GLP-1R form is constitutively active; activity change, negative = inhibition: at 38.3 µM (top of the series) unless noted
In short: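 Readout was luciferase luminescence, measured 12 min after detection reagent at room temperature. Beforehand, GLP-1R reporter HEK293 cells had sat 12 h, then received compounds for 24 hr at 37 deg C.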
% is set by controls: 0 for no effect and ±100 for the full control effect; potency is the fitted concentration of half-maximal effect; tags give direction and shape of the fitted curve.

**Q.** Which Potency does the source give for Cn1nnnc1SC(C(=O)Nc1cccc(C(F)(F)F)c1)c1ccccc1 (stereo not drawn) here?
**A.** inconclusive [inhibitor, partial curve, poor fit]

**Q.** For CN(CC(=O)Nc1ccc(F)cc1)C(=O)Cn1cnc2ccc(Cl)cc2c1=O, which “activity change, negative = inhibition” value is on record?
**A.** inactive: -20.5%

**Q.** With Cc1ccc(Nc2ncc(C(=O)N3CCN(c4cccc(Cl)c4)CC3)c3ccccc23)cc1Cl as the compound, how does the Potency read?
**A.** inconclusive [inhibitor, partial curve, poor fit]

**Q.** Cc1cc(C)cc(C(=O)N(C)C2CCCN(Cc3ccccc3F)C2)c1 (stereo not drawn) was tested. Which Potency did it give?
**A.** inconclusive [inhibitor, full curve, poor fit]

**Q.** COc1ccc(NC(=O)C2Cc3c(-c4ccccc4Oc4ccccc4)ccnc3O2)cn1 (stereo not drawn) was tested. Which Potency did it give?
**A.** inconclusive [inhibitor, partial curve, poor fit]

**Q.** CN(C(=O)COC(=O)c1ccccc1OCc1ccc(Cl)cc1)c1c(N)n(Cc2ccccc2)c(=O)[nH]c1=O was tested. Which Potency did it give?
**A.** inconclusive [inhibitor, single point]

**Q.** With Cc1ccc(NC(=S)/N=C(\N)Nc2nc(C)c3ccccc3n2)cc1C as the compound, how does the Potency read?
**A.** inconclusive [inhibitor, single point]

**Q.** Which Potency does the source give for Cc1cccc(OCCC(=O)Nc2ccc(Cl)cc2F)c1 here?
**A.** inconclusive [inhibitor, single point]

**Q.** How did the Potency turn out when O=C(CN1CCN(C2CCCCC2)CC1)Nc1ccccc1N1CCCCC1 was run?
**A.** inconclusive [inhibitor, single point]

**Q.** Which Potency does the source give for CC(=O)Nc1ccc(-c2ccnc3c2CC(C)(C(=O)Nc2ccc4c(c2)OCO4)O3)cc1 (stereo not drawn) here?
**A.** inconclusive [inhibitor, partial curve, poor fit]

**Q.** For Cc1ccc(C(=O)Nc2ccc3ccccc3n2)cc1, which Potency is on record?
**A.** inconclusive [inhibitor, single point]

**Q.** How did the Potency turn out when CCCNC(=O)C1(C)CCCN(Cc2cc3ccccc3o2)C1 (stereo not drawn) was run?
**A.** inconclusive [inhibitor, partial curve, poor fit]

**Q.** Cc1ccc2c(c1)[C@@H]1CN(C)CC[C@@H]1N2S(=O)(=O)c1ccc(F)cc1 was tested. Which Potency did it give?
**A.** inconclusive [inhibitor, single point]

**Q.** How did the Potency turn out when COCC(C)n1c(C)cc(C(=O)CSc2nnc(Nc3ccccc3F)s2)c1C (stereo not drawn) was run?
**A.** inconclusive [inhibitor, partial curve, poor fit]

**Q.** With COc1ccc(CC(=O)NCC(c2cccs2)S(=O)(=O)c2ccc(Cl)cc2)cc1 (stereo not drawn) as the compound, how does the “activity change, negative = inhibition” value read?
**A.** inactive: -9.3%

**Q.** COc1ccc(N2CCN(c3nc(-c4cccs4)nc4ccccc34)CC2)cc1 was tested. Which Potency did it give?
**A.** inconclusive [inhibitor, partial curve, poor fit]

**Q.** With CCN1CCN(C(=O)CCc2nnc(CCc3ccccc3OC)o2)[C@@H](C)C1=O as the compound, how does the Potency read?
**A.** inconclusive [inhibitor, full curve]

**Q.** CC(C)(C)OC(=O)NCc1ccc(CNC(=O)c2[nH]cnc2C(=O)NC2CCN(C(=O)OC(C)(C)C)CC2)cc1 was tested. Which Potency did it give?
**A.** inconclusive [inhibitor, single point]

**Q.** How did the Potency turn out when Cc1oc(-c2ccc(Cl)cc2)cc1C(=O)NC1CCN(Cc2ccccc2)CC1 was run?
**A.** inconclusive [inhibitor, single point]

**Q.** How did the Potency turn out when CCCn1c2ccccc2c2cnn(CC(=O)N(Cc3ccccc3)C(C)C)c(=O)c21 was run?
**A.** inconclusive [inhibitor, partial curve, poor fit]

**Q.** For Clc1ccc2nc(CSCc3ccccc3)cn2c1, which Potency is on record?
**A.** inconclusive [inhibitor, single point]

**Q.** How did the “activity change, negative = inhibition” value turn out when CCCS(=O)(=O)NC(=O)C1(C)CCN(C(=O)c2ccc(C(F)(F)F)cc2)C1 (stereo not drawn) was run?
**A.** inactive: 27.6%

**Q.** With COc1ccccc1N(C)S(=O)(=O)c1ccc(C(=O)Nc2nc(C)cs2)cc1 as the compound, how does the Potency read?
**A.** inconclusive [inhibitor, partial curve, poor fit]

**Q.** How did the Potency turn out when Cc1ccc(F)cc1NC(=O)N1CCN(c2ccnc3cc(Cl)ccc23)CC1 was run?
**A.** inconclusive [inhibitor, single point]

**Q.** Cc1csc2ncnc(N3CCN(S(=O)(=O)c4cccc(C(F)(F)F)c4)CC3)c12 was tested. Which Potency did it give?
**A.** inconclusive [inhibitor, partial curve, poor fit]

**Q.** Which Potency does the source give for O=C(Nc1ccc(S(=O)(=O)N2CCCCC2)cc1)C1CCCCC1 here?
**A.** inconclusive [inhibitor, partial curve, poor fit]

**Q.** CC(C(=O)NC1CCCc2ccccc21)N1C(=O)C2CCCCC2C1=O (stereo not drawn) was tested. Which “activity change, negative = inhibition” value did it give?
**A.** inactive: -13.4%

**Q.** CCCc1cc(C(=O)NC2CCCCC2)no1 was tested. Which “activity change, negative = inhibition” value did it give?
**A.** inactive: -7.77%

**Q.** Which Potency does the source give for Cc1cc2oc(=O)cc(CN3CCc4ccccc43)c2cc1Cl here?
**A.** inconclusive [inhibitor, partial curve, poor fit]

**Q.** With Cc1ccc(C2C3CN(C(C)C)CC=C3C(C#N)=C(N)C2(C#N)C#N)cc1 (stereo not drawn) as the compound, how does the Potency read?
**A.** inconclusive [inhibitor, full curve, poor fit]

**Q.** With Cc1cccc(N2CCN(C(=O)C3CCN(S(=O)(=O)c4c(C)noc4C)CC3)CC2)c1C as the compound, how does the Potency read?
**A.** inconclusive [inhibitor, single point]

**Q.** Which “activity change, negative = inhibition” value does the source give for Cc1cc2c(cc1C)-n1nnnc1C(N(C)CCc1ccccc1)C(=O)N2 (stereo not drawn) here?
**A.** inactive: -15.3%

**Q.** With Clc1cccc(CNc2ccn3nc(-c4cccc(OCc5ccccc5)c4)cc3n2)c1 as the compound, how does the Potency read?
**A.** inconclusive [inhibitor, single point]

**Q.** For CN(CC(=O)Nc1ccccc1Cl)C(=O)c1ccc(-c2cccc(C(F)(F)F)c2)o1, which Potency is on record?
**A.** inconclusive [inhibitor, single point]

**Q.** With COC(=O)N/N=C\C=C\c1ccc2c(c1)OCO2 as the compound, how does the “activity change, negative = inhibition” value read?
**A.** inactive: 19.3%

**Q.** How did the Potency turn out when Cn1c(-c2ccccc2)cnc1NCc1cc(Cl)ccc1O was run?
**A.** inconclusive [inhibitor, single point]

**Q.** For CCN(CC)c1ccc(NC(=O)Nc2ccccc2C(F)(F)F)cc1, which “activity change, negative = inhibition” value is on record?
**A.** inactive: -17.2%

**Q.** How did the “activity change, negative = inhibition” value turn out when CCn1c(=NC(=O)c2cccc(N3C(=O)CCC3=O)c2)sc2c(C)ccc(OC)c21 was run?
**A.** inactive: 45.4%

**Q.** How did the Potency turn out when COc1ccc(-c2noc(N3CCC(C(=O)N(C)c4cc(Cl)ccc4OC)CC3)n2)cc1 was run?
**A.** inconclusive [inhibitor, single point]

**Q.** Which Potency does the source give for CC(C)c1ccc(-n2cccc2/C=C2/C(=N)N3C=CSC3=NC2=O)cc1 here?
**A.** inconclusive [inhibitor, single point]

**Q.** With COc1ccc(CCNC(=O)CCc2cn(Cc3ccc(C)cc3)c3ccccc23)c(OC)c1OC as the compound, how does the Potency read?
**A.** inconclusive [inhibitor, single point]

**Q.** For O=C(Nc1cccc(Cl)c1)OCCOc1ccccc1, which Potency is on record?
**A.** inconclusive [inhibitor, single point]

**Q.** How did the Potency turn out when COc1cc2nc(/C=C/c3ccc(N(C)C)cc3)sc2cc1SC was run?
**A.** inconclusive [inhibitor, single point]

**Q.** For CCC(C)(C)c1ccc(OCCCC[n+]2ccccc2)c(C(C)(C)CC)c1, which Potency is on record?
**A.** inconclusive [inhibitor, partial curve, poor fit]

**Q.** With COc1ccc(-c2csc3ncnc(N4CCN(c5ccccc5)CC4)c23)cc1 as the compound, how does the Potency read?
**A.** inconclusive [inhibitor, single point]

**Q.** How did the Potency turn out when Nc1nc(CN2CCN(c3cccc(Cl)c3)CC2)nc(N2CCCc3ccccc32)n1 was run?
**A.** inconclusive [inhibitor, single point]

**Q.** With CC(c1n[nH]c(=S)n1-c1ccc(F)cc1)N1CCCCC1 (stereo not drawn) as the compound, how does the “activity change, negative = inhibition” value read?
**A.** inactive: 1.24%

**Q.** With CCOC(=O)C1CCCN(C(=O)Cn2ncn3c(cc4sc(CC)cc43)c2=O)C1 (stereo not drawn) as the compound, how does the Potency read?
**A.** inconclusive [inhibitor, partial curve, poor fit]

**Q.** How did the Potency turn out when CCOc1ccc(CNC(=O)C2CCN(C(=O)N3CC(C)Oc4ccccc43)CC2)cc1 (stereo not drawn) was run?
**A.** inconclusive [inhibitor, single point]

**Q.** Which Potency does the source give for CC(=O)N1CCc2cc(S(=O)(=O)CCC(=O)Nc3ccc4c(c3)OCCO4)ccc21 here?
**A.** inconclusive [inhibitor, single point]

**Q.** With O=C(O)c1ccccc1C(=O)NNc1ccc(F)cc1F as the compound, how does the Potency read?
**A.** inconclusive [inhibitor, full curve, poor fit]

**Q.** For Cc1ccc2nc(CN3CCN(C(=O)Nc4ccc(C)c(F)c4)CC3)oc2c1, which Potency is on record?
**A.** inconclusive [inhibitor, single point]

**Q.** For COc1ccc(C2C(=O)N(C3CCCCCC3)CC(=O)N2CCc2ccc(OC)c(OC)c2)cc1 (stereo not drawn), which “activity change, negative = inhibition” value is on record?
**A.** inactive: 9.38%

**Q.** Which Potency does the source give for CCc1ccc(NC(=O)c2ccc3c(=O)n4c(nc3c2)CCCCC4)cc1 here?
**A.** inconclusive [inhibitor, partial curve, poor fit]

**Q.** COC(=O)c1ccc(Cn2c(O)c(N=NC(N)=S)c3ccccc32)o1 was tested. Which Potency did it give?
**A.** active: 10 µM

**Q.** How did the “activity change, negative = inhibition” value turn out when Cc1nnnn1/C(=C\c1ccccc1)C(=O)OCC(=O)N(C)C1CCS(=O)(=O)C1 (stereo not drawn) was run?
**A.** inactive: 0.321%

**Q.** Which “activity change, negative = inhibition” value does the source give for NS(=O)(=O)c1ccc(N2CCN(C(=O)c3ccco3)CC2)nc1 here?
**A.** inactive: 1.64%

**Q.** How did the Potency turn out when COc1ccc(CCNC(=O)Nc2nc(C(N)COCc3ccccc3)cs2)cc1OC (stereo not drawn) was run?
**A.** inconclusive [inhibitor, single point]

**Q.** For CCN(Cc1ccccc1)S(=O)(=O)c1ccc(C(=O)N(CCCN(C)C)c2nc3ccc(F)cc3s2)cc1, which Potency is on record?
**A.** active: 5.62 µM

**Q.** How did the Potency turn out when CCOc1cc(S(=O)(=O)N2CC=C(c3ccc(F)cc3)CC2)c(OCC)cc1-n1cnnn1 was run?
**A.** inconclusive [inhibitor, partial curve, poor fit]

**Q.** With CCCCn1c(SCC(=O)N2CCC(C)CC2)nc2ccsc2c1=O as the compound, how does the Potency read?
**A.** inconclusive [inhibitor, partial curve, poor fit]

**Q.** How did the Potency turn out when O=C(c1cccs1)c1cn(CCOc2ccccc2Cl)c2ccccc12 was run?
**A.** inconclusive [inhibitor, single point]

**Q.** Which “activity change, negative = inhibition” value does the source give for Cc1[nH]c2ccccc2c1C(C#N)(C#N)C1C(=O)c2ccccc2C1=O here?
**A.** inactive: -29.3%
